Assay results from PMC4336329 (PLoS ONE, 2015).
Hit rate of the full screen: of about 310,000 compounds, about 2,200 (0.71%) showed an effect of 50% or more. Effects have a minus sign here. The list shows a part of the results.

Biological target: human ether-à-go-go-related gene (hERG) potassium channel (human, UniProt Q12809)
Assay: primary screen, population patch clamp on CHO cells stably expressing hERG

Chain of human ether-à-go-go-related gene (hERG) potassium channel (Q12809 whole entry, looked up): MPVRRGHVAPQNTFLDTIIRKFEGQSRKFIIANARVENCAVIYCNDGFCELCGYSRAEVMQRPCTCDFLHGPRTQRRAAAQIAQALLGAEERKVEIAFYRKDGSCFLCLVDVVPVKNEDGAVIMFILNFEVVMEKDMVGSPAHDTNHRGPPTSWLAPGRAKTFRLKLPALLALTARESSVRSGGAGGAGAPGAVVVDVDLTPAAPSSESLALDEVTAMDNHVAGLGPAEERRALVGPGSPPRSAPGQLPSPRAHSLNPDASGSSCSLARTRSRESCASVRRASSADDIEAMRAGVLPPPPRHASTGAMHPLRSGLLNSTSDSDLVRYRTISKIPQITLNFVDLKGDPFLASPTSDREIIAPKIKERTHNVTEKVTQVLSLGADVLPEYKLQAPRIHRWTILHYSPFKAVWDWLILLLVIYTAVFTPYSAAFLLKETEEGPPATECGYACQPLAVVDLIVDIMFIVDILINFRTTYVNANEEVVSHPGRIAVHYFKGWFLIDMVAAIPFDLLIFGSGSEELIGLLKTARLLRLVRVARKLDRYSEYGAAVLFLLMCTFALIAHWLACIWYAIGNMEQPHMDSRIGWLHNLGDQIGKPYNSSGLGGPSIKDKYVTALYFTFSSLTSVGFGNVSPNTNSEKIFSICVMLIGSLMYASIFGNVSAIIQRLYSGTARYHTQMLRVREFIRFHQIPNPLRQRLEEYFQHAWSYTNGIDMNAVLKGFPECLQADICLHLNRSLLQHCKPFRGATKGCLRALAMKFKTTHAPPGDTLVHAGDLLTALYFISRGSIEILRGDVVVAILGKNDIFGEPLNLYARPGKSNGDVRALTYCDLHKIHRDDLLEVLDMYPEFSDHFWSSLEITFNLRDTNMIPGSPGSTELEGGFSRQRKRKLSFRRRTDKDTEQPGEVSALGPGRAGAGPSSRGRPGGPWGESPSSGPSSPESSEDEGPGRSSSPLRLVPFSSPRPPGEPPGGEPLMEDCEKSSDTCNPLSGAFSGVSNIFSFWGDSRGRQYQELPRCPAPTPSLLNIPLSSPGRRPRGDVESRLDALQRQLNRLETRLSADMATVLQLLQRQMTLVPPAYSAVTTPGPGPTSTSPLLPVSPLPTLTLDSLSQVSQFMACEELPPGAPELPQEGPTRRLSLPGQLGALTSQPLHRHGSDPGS

Row | SMILES | hERG current change (%, negative = inhibition) at 1uM [%]
1 | CN1/C(=C/C(=O)C2CC2)C(C)(C)c2ccccc21 | 11.5
2 | Cc1nn(Cc2noc(C(=O)NCc3ccccn3)n2)c(C)c1Br | 5.24
3 | CCCC(=O)Nc1ccc2c(c1)nc(CN1CCCC1)n2C | 17.9
4 | CCc1ccc2c(c1)c1nc(C)sc1n2CC(=O)OC | 16.1
5 | Cc1ccc(CNC(=O)CSc2ccc(-c3cccs3)nn2)cc1 | 11.4
6 | COc1ccccc1NC(=O)COc1ccc(/C=N/NS(=O)(=O)c2ccc(C)cc2)cc1 | 18
7 | CCCn1c(=S)[nH]c2cc(C(=O)N3CCCC(C(=O)OCC)C3)ccc2c1=O (stereo not drawn) | 13.5
8 | COc1ccc2c(c1)[C@H]1[C@H](CO2)[C@H](c2ccccc2)[C@]2(C)C(=O)N[C@@H](C)C(=O)N12 | 16.8
9 | CCOC(=O)[C@H]1[C@H]2COc3ccc(Br)cc3[C@@H]2N2C(=O)CN(Cc3ccco3)C(=O)[C@@]12C | 1.87
10 | O=C(c1ccc(Nc2cccc(C(F)(F)F)c2)nc1)N1CCCC1 | -3.64
11 | O=C1CSC(=S)N1/N=C/c1cc(Br)c(O)c(Br)c1 | 15.6
12 | O=C(Nc1cccnc1)c1ccc(NC(=O)c2ccco2)cc1 | 14.2
13 | Cc1ccccc1OCCCn1cc(C(=O)C(=O)N2CCOCC2)c2ccccc21 | 2.01
14 | O=C(c1noc2c1CCCC2)N1CCC(CO)(Cc2ccccc2Cl)CC1 | 14.5
15 | Cc1ccc(S(=O)(=O)Nc2ccncc2)c(C)c1N(C)S(=O)(=O)c1ccc(Cl)cc1 | 7.71
16 | C#CCOc1ccc(/C=C2/C(=O)NN(c3ccc(F)cc3)C2=O)cc1OC | 9.35
17 | Cc1ccc(NC(=O)CN2C(=O)C3C4C=CC(C4)C3C2=O)cc1 (stereo not drawn) | 11.7
18 | O=c1cccc2n1Cc1cc3ccccc3nc1-2 | 11.2
19 | Cc1ccc(C(C)C)c(OCCN(C)C)c1.O=C(O)C(=O)O | 0.147
20 | Cc1cc(C(=O)CCl)c(C)n1CCc1ccccc1 | 11.5
21 | O=C(Nc1ccc(N2CCOCC2)cc1)Nc1ccc(Cl)c(Cl)c1 | 17.2
22 | CS(=O)(=O)N1CCCC(C(=O)Nc2ccc(F)cc2F)C1 (stereo not drawn) | 17.9
23 | CC12CCC(=O)N1C(C(=O)Nc1cccc(S(=O)(=O)N3CCCCC3)c1)CS2 (stereo not drawn) | -21
24 | CC(C)(C)c1ccc(C(=O)Nn2c(CCC(=O)O)ccc2-c2cccs2)cc1 | -6.03
